Laboratory results from article PMC11832919 (Nature Communications, 2025).

What was measured:
[1] = molecular target: human oxyhemoglobin (coordinating reduced heme) (human, UniProt P69905;P68871); assay: SAXS
[2] = molecular target: human methemoglobin (coordinating oxidized heme) (human, UniProt P69905;P68871); assay: SAXS

B1: StrepTag II-IsdB (Staphylococcus aureus iron-regulated surface determinant protein B) (natural protein)
chain: not shown
[1]
  stoichiometry N: 2 IsdB per oxyHb tetramer
[2]
  stoichiometry N: 2 IsdB per metHb dimer
